Laboratory results taken from ChEMBL document CHEMBL4888484, “Replenishing the malaria drug discovery pipeline: Screening and hit evaluation of the MMV Hit Generation Library 1 (HGL1) against asexual blood stage Plasmodium falciparum ,using a nano luciferase reporter read-out” (2022).
Where “and” joins values, the source holds several entries; their conditions need not be identical. Identical values can stand only once. Among all 150,000 compounds or so, about 540 (0.36%) showed an effect of 50% or more. This is one part of the list.

Tested on: Plasmodium falciparum
Test: Primary screen in NF54 nanoGlo assay, in single point, at 2uM, 72h; a lower Z score goes with more inhibition
Assay type: functional, Erythrocyte
Details: timepoint 72 hour

Compound: Cc1cc(-c2nn(-c3ccccc3F)cc2CN[C@H]2CCCCNC2=O)c(C)s1
- % Inhibition: -1%
- Z score: 0.09

Compound: Clc1ccc(-c2csc(-c3ccco3)n2)cc1
- % Inhibition: -9%
- Z score: 0.82

Compound: COc1cccc(CNC(=O)c2nnc(-c3cccc(Cl)c3)o2)c1
- % Inhibition: -4%
- Z score: 0.58

Compound: O=C(C1=C(c2ccccc2)S(=O)(=O)CCO1)N(Cc1ccccc1F)c1ccccn1
- % Inhibition: 8%
- Z score: -0.98

Compound: CN(C)c1cc(C(F)(F)F)nc(N2CC[C@@]3(CCCOC3)C2)n1
- % Inhibition: -9%
- Z score: 1.07

Compound: Cn1cc(C(=O)Nc2n[nH]c3ccc(F)cc23)c(C(C)(C)C)n1
- % Inhibition: -14%
- Z score: 2.55

Compound: CC(C)(C(=O)N1CCC[C@H](CN2CCOCC2)C1)c1ccccc1F
- % Inhibition: 8%
- Z score: -1.04

Compound: O=C(NCc1ccc2c(c1)OCO2)c1cc(N[C@H]2CCCNC2=O)ccn1
- % Inhibition: -12%
- Z score: 1.5

Compound: COc1cc(CN2CCn3nc(C(=O)NC(c4ccccc4)c4ccccc4)cc3C2=O)cc(OC)c1
- % Inhibition: 7%
- Z score: -1.11

Compound: CCOCCC(=O)N1C[C@H](c2ccc(C)cc2)[C@@H](N(C)C)C1
- % Inhibition: -17%
- Z score: 2.14

Compound: O=C(Nc1ccc(F)c(Cl)c1)c1cc(S(=O)(=O)N2CCCc3ccccc32)ccc1F
- % Inhibition: 5%
- Z score: -0.56

Compound: COc1ccc(-c2noc(CN3CCC[C@H]3c3cccs3)n2)cc1
- % Inhibition: 17%
- Z score: -1.95

Compound: CCCc1cc(=O)n(-c2ccc(C(=O)N[C@H]3CCCNC3=O)cc2)[nH]1
- % Inhibition: 11%
- Z score: -1.97

Compound: O=C(c1cn(C2CCOC2)nn1)N1CCOC(c2ccsc2)C1 (centres undefined)
- % Inhibition: -4%
- Z score: 0.46

Compound: O=C1CN(C(=O)C2CC2c2ccc(Cl)cc2Cl)CCN1 (centres undefined)
- % Inhibition: -8%
- Z score: 1.17

Compound: O=C(Nc1ccc(F)cc1F)[C@@]1(CCO)CCN(Cc2ccccc2)C1
- % Inhibition: -7%
- Z score: 1.29

Compound: O=C(c1ccc(-c2noc(C3CCCC3)n2)cc1)N1CCN(c2ccccc2)CC1
- % Inhibition: -11%
- Z score: 1.81

Compound: Cc1cc(N2CC(n3nc(C)cc3C)C2)nc(N)n1
- % Inhibition: 1%
- Z score: -0.15

Compound: Cc1ccn(CC(=O)N2CCC[C@H](CCc3ccccc3)C2)n1
- % Inhibition: -1%
- Z score: 0.12

Compound: O=S(=O)(c1cc(F)cc(Cl)c1)N1CCC12COC2
- % Inhibition: -5%
- Z score: 0.74

Compound: O=c1[nH]nc2n1CCN(Cc1ccccc1F)CC2
- % Inhibition: 7%
- Z score: -0.85

Compound: Cn1ccc2cc(CCC(=O)NCCN3CCCCC3)ccc21
- % Inhibition: -1%
- Z score: 0.07

Compound: CCN(Cc1nc2cc(OC)c(OC)cc2c(=O)[nH]1)C(=O)CN1C(=O)NC2(CCCCC2C)C1=O (centres undefined)
- % Inhibition: -6%
- Z score: 1.11

Compound: COC(=O)c1ccc(C(=O)NCC2CCC(c3nc4ccccc4n3C)CC2)cc1 (centres undefined)
- % Inhibition: -8%
- Z score: 0.96

Compound: COC1CN(C2CC(=O)N(CC(F)(F)F)C2=O)CCC1C (centres undefined)
- % Inhibition: -8%
- Z score: 0.84

Compound: COc1ccc(CNC(=O)CN2CCN(C(=O)Nc3ccccc3)CC2=O)cc1
- % Inhibition: -17%
- Z score: 2.16

Compound: CCS(=O)(=O)c1ccc(-c2c[nH]nc2C)s1
- % Inhibition: -12%
- Z score: 1.49

Compound: Cc1nc(-c2cc(S(=O)(=O)NC3CCCCCC3)cn2C)sc1C(=O)N1CCCCC1
- % Inhibition: -11%
- Z score: 2.06

Compound: O=C(O)[C@@H]1CCCN1C(=O)Cc1ccc(Cl)s1
- % Inhibition: -6%
- Z score: 0.87

Compound: COCC(=O)N(Cc1csc(COc2ccc(Cl)cc2)n1)C1CC1
- % Inhibition: 4%
- Z score: -0.48

Compound: c1ccc2c(OC3COC3)ccnc2c1
- % Inhibition: 7%
- Z score: -1.34

Compound: C[C@@H](CO)C1CCN(C(=O)c2cccc3c2CCC3=O)CC1
- % Inhibition: 10%
- Z score: -1.98

Compound: Cc1ccc(C(=O)N2CCC[C@H]2c2ccc3c(c2)OCCCO3)cc1NC(=O)c1ccco1
- % Inhibition: -3%
- Z score: 0.49

Compound: Cc1ccc2c(c1)c(-c1ccccc1)nc1sc(-c3ccccc3)c([O-])[n+]12
- % Inhibition: -14%
- Z score: 2.01

Compound: CC[C@@H](c1ccnn1C)n1cnc(-c2ccccc2)c1-c1nccn1C
- % Inhibition: -5%
- Z score: 0.89

Compound: CN(CC(C)(C)CNC(=O)C1CCCC1)C(=O)C1CCCC1
- % Inhibition: -9%
- Z score: 0.81

Compound: CN(Cc1ncon1)S(=O)(=O)C[C@@]12CC[C@@H](CC1=O)C2(C)C
- % Inhibition: -3%
- Z score: 0.63

Compound: Cc1cc(N2CCc3ccccc3C2)n2ncnc2n1
- % Inhibition: -18%
- Z score: 2.3

Compound: O=c1cc(-c2ccccc2)[nH]c2ccc(Br)cc12
- % Inhibition: 4%
- Z score: -0.78

Compound: Fc1ccc(CCn2ccnn2)cc1F
- % Inhibition: -8%
- Z score: 1.09

Compound: CNC(=O)C1CN(CC2CCCCN2C(=O)OC(C)(C)C)CCO1 (centres undefined)
- % Inhibition: -4%
- Z score: 0.86

Compound: Cc1ccccc1COC1CN(C(=O)CN2CCCCCC2=O)C1
- % Inhibition: -10%
- Z score: 1.48

Compound: COc1ccccc1OCC(=O)N[C@H](c1ccc(Br)cc1)C1CCC1
- % Inhibition: 12%
- Z score: -1.05

Compound: CC1CC(CN2C(=O)N[C@@H](C(C)C)C2=O)CCO1 (some centres undefined)
- % Inhibition: -12%
- Z score: 1.94

Compound: COC[C@H]1CCN(Cc2cnc(-c3ccccc3)s2)C1
- % Inhibition: -14%
- Z score: 1.4

Compound: CCOC(=O)COc1ccc(NC(=O)N2CCOC3(CCC3)C2)cc1
- % Inhibition: -9%
- Z score: 0.92

Compound: Cc1cc(C(=O)NC[C@H](O)Cc2ccccc2)oc1Br
- % Inhibition: 3%
- Z score: -0.49

Compound: CC(C)c1nc2n(n1)C1(CCCCC1)[C@@H]1CCCC[C@@H]1N2C(=O)c1ccc(F)cc1
- % Inhibition: -27%
- Z score: 2.37

Compound: CN1c2ccccc2N(Cc2cccnc2)S1(=O)=O
- % Inhibition: 1%
- Z score: -0.17

Compound: Cc1ccc(CN(C)C(=O)NCCc2cc(C)c(O)c(C)c2)o1
- % Inhibition: 1%
- Z score: -0.26

Compound: O=C(c1cc(=O)c(OCc2ccccc2)c[nH]1)N1CCOCC1
- % Inhibition (2 µM): 2% and -2%

Compound: COc1cccc2sc(OC3CN(C(=O)c4ccco4)C3)nc12
- % Inhibition: 0%
- Z score: -0.04

Compound: COc1ccc(Cn2ccnc2CNC2CCCCC2)cc1
- % Inhibition: -5%
- Z score: 0.46

Compound: CCc1ccc(O)c(NC(=O)[C@H]2CCOC2)c1
- % Inhibition: -1%
- Z score: 0.12

Compound: COCCN(CC(=O)N1CCN(C)CC1)Cc1nccs1
- % Inhibition: -16%
- Z score: 1.53

Compound: O=C(c1ocnc1C1CC1)N1CCn2c(nnc2C(F)(F)F)C1
- % Inhibition: -10%
- Z score: 1.1

Compound: CCc1nccn1CC(=O)N1CCCC[C@@H]1CCCOC
- % Inhibition: 8%
- Z score: -1.67

Compound: COc1ccc([C@@H](C)CN2CCN(c3ccnc(C)n3)CC2)cc1
- % Inhibition: 15%
- Z score: -1.89

Compound: CC1CCC2(CC1)N=C(c1ccccc1)C(=O)N2 (centres undefined)
- % Inhibition: 34%
- Z score: -3.87

Compound: CCCNC(=O)c1ccc(N(C)Cc2nnc3ccccn23)nc1
- % Inhibition: -24%
- Z score: 3.45

Compound: CC(C)N(Cc1cnn(C)c1)C(=O)c1cc2ccccc2c(=O)[nH]1
- % Inhibition: -41%
- Z score: 4.84

Compound: O=C1CCC(c2ccccc2)(c2ccccc2)CN1CCN1CCOCC1
- % Inhibition: 0%
- Z score: 0.07

Compound: CC(C)n1ncc2c(C(N)=O)cc(-c3ccc4c(c3)OCCO4)nc21
- % Inhibition: -9%
- Z score: 1.31

Compound: CNC(=O)[C@@H](C)CN(C)c1ccncc1F
- % Inhibition: -5%
- Z score: 0.72

Compound: O=C(NC1CCN(c2nnc3ccc(Cl)cn23)CC1)c1cccnc1
- % Inhibition: 32%
- Z score: -3.62

Compound: Brc1ccc2c(c1)C1(CCCC1)CN2
- % Inhibition: -14%
- Z score: 1.96

Compound: Cn1c(C[C@H]2CN(C(=O)c3ccc(Cl)cc3)CC[C@H]2CC(=O)O)nc2ccccc21
- % Inhibition: -3%
- Z score: 0.44

Compound: CN(CCN(C)S(=O)(=O)c1c(Cl)cccc1Cl)C1CCCCC1
- % Inhibition: -3%
- Z score: 0.34

Compound: Cc1nnc(CCNC(=O)N2CC[C@H](C(=O)N3CCCC3)C2)s1
- % Inhibition: -15%
- Z score: 1.61

Compound: Cc1ccccc1NC(=O)c1n(O)c2ccccc2[n+]1[O-]
- % Inhibition: -13%
- Z score: 1.64

Compound: CCOC[C@H]1CCN(C(=O)Nc2cnc(C)cn2)C1
- % Inhibition: 32%
- Z score: -3.64

Compound: Cc1c(C(=O)N(C)[C@@H](C)c2cccc(-c3ccncc3)c2)nnn1-c1ccc(F)cc1
- % Inhibition: -3%
- Z score: 0.35

Compound: CC[C@]1(N2CCN(C(=O)CCc3c[nH]c4ccccc34)CC2)CCN(S(C)(=O)=O)C1
- % Inhibition: -4%
- Z score: 0.38

Compound: CC[C@@H](C(=O)O)N(C)C(=O)c1cccc(C)c1Cl
- % Inhibition: -11%
- Z score: 1.46

Compound: COC[C@H]1CCCN(S(=O)(=O)NCC2(N3CCCCC3)CCCC2)C1
- % Inhibition: -1%
- Z score: 0.16

Compound: O=C(Nc1ccccc1)C1Cc2cc(C(F)(F)F)ccc2N2CCN(C3CCCC3)CC12 (centres undefined)
- % Inhibition: -9%
- Z score: 1.5

Compound: CC1CCC(NC(=O)CS(=O)(=O)C2CCCC2)C(C)C1 (centres undefined)
- % Inhibition: -8%
- Z score: 1.23

Compound: CC(C)[C@H]1CCO[C@H]1C(=O)NCCN1CC2CCC(C1)O2
- % Inhibition: -3%
- Z score: 0.61

Compound: CCCN1CCN(C(=O)CCc2n[nH]c(C)c2C)[C@H]2CS(=O)(=O)C[C@H]21
- % Inhibition: -13%
- Z score: 2.1

Compound: Cc1ccc(NC2(C(=O)NCCN(C)S(C)(=O)=O)CCCC2)cc1
- % Inhibition: -12%
- Z score: 1.16

Compound: CCN1C[C@H](CN(C)C(=O)c2cnn(C)c2C)Oc2ccccc21
- % Inhibition: 10%
- Z score: -1.28

Compound: CC(=O)Nc1ccnn1CC1=CCCN([C@@H](C)C(=O)N2CCCC2)C1
- % Inhibition: -7%
- Z score: 1.16

Compound: CC(=O)N1CCc2cc(N[C@@H](C)C(=O)N3CCCCCC3)ccc21
- % Inhibition: 1%
- Z score: -0.16

Compound: CCOC(=O)c1nc2ccccc2nc1N1CCC2(C1)OCCO2
- % Inhibition: -3%
- Z score: 0.56

Compound: CCc1ncc(CNC(=O)c2cn(CC)nn2)o1
- % Inhibition: -11%
- Z score: 1.51
